Source: the supplement of paper PMC4967469
Lines with a small IC50 respond at low doses; a limit (>, <) means that the fit lies beyond the doses tested. The AUC spans the tested range (256-fold, ending at the top dose) of the same fit; it is 1 without any effect and falls as sensitivity rises. Where the top dose is marked as inferred, it was calculated from the reported fits.

Compound: Cn1cc(C2=C(c3cn(C4CCN(Cc5ccccn5)CC4)c4ccccc34)C(=O)NC2=O)c2ccccc21 [LY317615]
Test: Viability of human cancer cell lines after 72 h of drug (GDSC screen)
Conditions: top dose inferred
Protocol: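 Human cancer cell lines in 384-well plates, medium with 10% serum, drug for 72 h over a 256-fold dose range (nine 2-fold or five 4-fold steps up to the top dose). Adherent lines were fixed and stained with the nucleic acid dye Syto60, suspension lines read with resazurin; signal relative to control wells, capped at 0 and 100%. One two-parameter sigmoid per drug and line, fitted in a mixed model over all curves with the slope shared within a line.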

| Cell Line | AUC | IC50 [µM] |
| --- | --- | --- |
| OAW-42 (ovary, adherent, top dose 20 µM) | 0.93 | > 20 |
| PF-382 (T-cell lymphoblastic leukaemia, suspension, top dose 20 µM) | 0.542 | 1.6 |
| SUP-T1 (T-cell lymphoblastic leukaemia, suspension, top dose 20 µM) | 0.507 | 1.31 |
| KMH-2 (thyroid, adherent, top dose 20 µM) | 0.902 | > 20 |
| LAMA-84 (chronic myeloid leukaemia, suspension, top dose 20 µM) | 0.9 | > 20 |
| COR-L23 (large cell lung carcinoma, adherent, top dose 20 µM) | 0.96 | > 20 |
| Daoy (medulloblastoma, adherent, top dose 20 µM) | 0.909 | > 20 |
| PL4 (pancreas, adherent, top dose 20 µM) | 0.984 | > 20 |
| JVM-2 (lymphoid neoplasm, suspension, top dose 20 µM) | 0.95 | > 20 |
| D-542MG (glioma, adherent, top dose 20 µM) | 0.98 | > 20 |
| H2591 (mesothelioma, adherent, top dose 20 µM) | 0.928 | > 20 |
| EB-3 (Burkitt lymphoma, suspension, top dose 20 µM) | 0.865 | > 20 |
| U251 (glioma, adherent, top dose 20 µM) | 0.88 | 19 |
| HCC2157 (breast, suspension, top dose 20 µM) | 0.967 | > 20 |
| BFTC-905 (bladder, adherent, top dose 20 µM) | 0.906 | > 20 |
| OVCAR-3 (ovary, adherent, top dose 20 µM) | 0.987 | > 20 |
| Ramos-2G6-4C10 (Burkitt lymphoma, suspension, top dose 20 µM) | 0.866 | 13.7 |

| Cell Line | AUC | IC50 [µM] |
| --- | --- | --- |
| HCC-33 (small cell lung carcinoma, adherent, top dose 20 µM) | 0.928 | > 20 |
| PE/CA-PJ15 (head and neck, adherent, top dose 20 µM) | 0.929 | > 20 |
| A431 (skin, adherent, top dose 20 µM) | 0.637 | 2.94 |
| LAN-6 (neuroblastoma, adherent, top dose 20 µM) | 0.821 | 14.5 |
| HUTU-80 (digestive system, adherent, top dose 20 µM) | 0.897 | 17.3 |
| JHH-1 (liver, adherent, top dose 20 µM) | 0.891 | > 20 |
| A253 (head and neck, adherent, top dose 20 µM) | 0.913 | > 20 |
| QGP-1 (pancreas, adherent, top dose 20 µM) | 0.973 | > 20 |
| LB996-RCC (kidney, adherent, top dose 20 µM) | 0.982 | > 20 |
| CTV-1 (acute myeloid leukaemia, suspension, top dose 20 µM) | 0.381 | 0.632 |
| BICR78 (head and neck, adherent, top dose 20 µM) | 0.968 | > 20 |
| HuP-T4 (pancreas, adherent, top dose 20 µM) | 0.473 | 1.05 |
| MC-IXC (neuroblastoma, adherent, top dose 20 µM) | 0.804 | 7.03 |
| PCI-30 (head and neck, adherent, top dose 20 µM) | 0.944 | > 20 |
| A704 (kidney, adherent, top dose 20 µM) | 0.939 | > 20 |
| SW954 (urogenital system, adherent, top dose 20 µM) | 0.891 | > 20 |
